# Test results: PubChem BioAssay AID1347165 (National Center for Advancing Translational Sciences (NCATS), 2019)
# About 5,700 (2.6%) of roughly 220,000 compounds were called active. Inconclusive results, whose numbers are uncertain, are shown with a selection of clear calls. Calls come from the whole dose curve; as a rule, active = well fitted inhibition curve with a large enough effect; inconclusive = small, poorly fitted or top-dose-only effect; inactive = no such curve, though single readings can be large or run the other way. Potencies beside an inconclusive call are fits to weak or partial responses and may not hold up.
# Target: Lysine-specific demethylase 5B (Homo sapiens) (UniProt Q9UGL1)
# UniProt Q9UGL1, sequence (Q9UGL1 whole entry, looked up): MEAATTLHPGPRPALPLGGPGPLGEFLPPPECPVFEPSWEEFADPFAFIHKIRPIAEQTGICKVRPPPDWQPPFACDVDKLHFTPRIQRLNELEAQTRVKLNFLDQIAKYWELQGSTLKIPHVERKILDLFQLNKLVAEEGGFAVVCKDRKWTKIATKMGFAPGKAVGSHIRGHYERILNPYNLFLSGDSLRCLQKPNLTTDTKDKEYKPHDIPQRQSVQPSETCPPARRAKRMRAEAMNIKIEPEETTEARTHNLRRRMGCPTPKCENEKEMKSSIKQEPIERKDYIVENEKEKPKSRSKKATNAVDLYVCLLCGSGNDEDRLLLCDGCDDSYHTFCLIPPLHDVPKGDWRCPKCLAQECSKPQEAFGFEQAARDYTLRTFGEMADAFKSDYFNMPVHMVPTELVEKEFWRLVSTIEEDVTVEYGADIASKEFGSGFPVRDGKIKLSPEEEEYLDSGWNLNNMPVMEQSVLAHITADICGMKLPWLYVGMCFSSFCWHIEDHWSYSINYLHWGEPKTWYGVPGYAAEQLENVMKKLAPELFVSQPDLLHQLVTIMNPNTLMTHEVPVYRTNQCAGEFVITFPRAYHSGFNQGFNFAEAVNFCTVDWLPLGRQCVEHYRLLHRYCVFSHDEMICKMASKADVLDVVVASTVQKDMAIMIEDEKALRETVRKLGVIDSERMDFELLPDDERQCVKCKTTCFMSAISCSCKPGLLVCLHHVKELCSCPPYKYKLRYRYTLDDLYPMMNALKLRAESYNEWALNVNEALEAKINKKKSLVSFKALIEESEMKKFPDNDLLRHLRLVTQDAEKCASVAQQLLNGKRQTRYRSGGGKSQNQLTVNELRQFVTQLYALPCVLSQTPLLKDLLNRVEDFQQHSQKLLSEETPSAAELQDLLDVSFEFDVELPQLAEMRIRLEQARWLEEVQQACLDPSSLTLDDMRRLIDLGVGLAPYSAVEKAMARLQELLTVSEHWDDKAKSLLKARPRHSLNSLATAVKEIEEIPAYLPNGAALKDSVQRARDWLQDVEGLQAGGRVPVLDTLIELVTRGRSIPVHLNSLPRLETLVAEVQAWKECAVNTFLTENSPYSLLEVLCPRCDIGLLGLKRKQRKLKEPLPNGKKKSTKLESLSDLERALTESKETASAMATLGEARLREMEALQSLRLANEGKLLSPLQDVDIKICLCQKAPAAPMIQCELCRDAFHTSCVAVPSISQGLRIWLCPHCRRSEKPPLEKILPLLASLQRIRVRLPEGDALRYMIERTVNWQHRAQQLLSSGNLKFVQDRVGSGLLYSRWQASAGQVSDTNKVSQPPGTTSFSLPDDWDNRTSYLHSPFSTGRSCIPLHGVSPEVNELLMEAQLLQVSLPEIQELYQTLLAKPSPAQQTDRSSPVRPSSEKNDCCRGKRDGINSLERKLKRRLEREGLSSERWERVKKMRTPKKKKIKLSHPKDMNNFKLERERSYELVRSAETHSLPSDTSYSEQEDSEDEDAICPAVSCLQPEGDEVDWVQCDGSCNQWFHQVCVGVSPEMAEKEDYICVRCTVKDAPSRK
# Test: Primary screen for KDM5B Histone Demethylases FDH-coupled qHTS; note: nearly all actives have a fitted effect of over 70% in size; for activity change, negative = inhibition: 0% is about no effect
# Settings: FDH-coupled NADH fluorescence (FDH is formaldehyde dehydrogenase); activity change, negative = inhibition: at 57.7 µM (top of the series) unless noted
# Outline: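 qHTS format, multiple compound concentrations. Buffer 50 mM HEPES pH 7.5/0.01% Tween-20; 200 nM KDM5BΔAP final; 10 min compound preincubation; substrate-mix levels 12.5 µM peptide, 25 µM α-KG, 0.25 mM NAD⁺; 30 min RT; ΔRFU.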
# Potency is the fitted concentration of half-maximal effect; tags give direction and shape of the fitted curve.
SMILES,Potency,"activity change, negative = inhibition"
Cc1cccc(C)c1-c1nnc2ccc(C(=O)NC3CC3)cn12,inactive,–
Cc1ccc(NC(=O)COC(=O)c2ccc3ccccc3n2)c(C)c1,inactive,–
COc1ccc(-c2noc([C@@H]3C[C@@H](O)CN3Cc3cc4ccccc4o3)n2)cc1,active: 31.6 µM,–
COc1cccc(C2CCCN2Cc2cc(=O)oc3cc(OC)ccc23)c1 (stereo unspecified),inactive,–
COc1ccccc1-c1nc(S(=O)(=O)c2ccc(Cl)cc2)c(N2CCCCCC2)o1,"inconclusive: 1.26 µM [inhibitor, partial curve, poor fit]",–
Cn1cc(-c2cc3n(n2)CCCN3C(=O)CCC(=O)N2CCCC2)c2ccccc21,"inconclusive: 20 µM [inhibitor, single point]",–
COc1ccc(S(=O)(=O)N2CCCN(C)c3ccccc32)cc1Cl,"inconclusive: 14.1 µM [inhibitor, partial curve]",–
O=C(NC1C[C@H]2CC[C@@H](C1)N2C(=O)C1CCCC1)c1ccncc1 (stereo partly specified),inactive,–
O=C(Nc1ccc(N2CCC(N3CCCCC3)CC2)c(C(=O)O)c1)c1ccc(Br)cc1,"inconclusive: 44.7 µM [inhibitor, single point]",–
CCOc1cc(C2C(C(=O)OC)=C(C)NC3=C2C(=O)c2ccccc23)ccc1O (stereo unspecified),"inconclusive: 14.1 µM [inhibitor, partial curve, poor fit]",–
N[C@H]1CN(c2cncc(C(=O)N3CCCCC3)n2)C[C@@H]1C1CC1,active: 28.2 µM,–
CN1[C@@H](CCC(=O)NCc2cccnc2)CNC(=O)[C@@H]2[C@H]1CCN2Cc1ccc(S(C)(=O)=O)cc1,"inconclusive: 17.8 µM [inhibitor, partial curve]",–
O=C(c1cn(-c2ccccc2)nn1)N1CCOCC(O)(CN2CCCC2)C1 (stereo unspecified),"inconclusive: 35.5 µM [inhibitor, partial curve, poor fit]",–
CCNC(=O)c1cccnc1OC1CCN(C(=O)Cc2ccccc2)C1 (stereo unspecified),inactive,–
CCOC(=O)c1ccc(-n2c(N)c(C(=O)OC)c3nc4ccccc4nc32)cc1,"inconclusive: 7.08 µM [inhibitor, partial curve, poor fit]",–
CC1CCCN(c2csc3ccc(F)cc3c2=O)C1 (stereo unspecified),"inconclusive: 14.1 µM [inhibitor, partial curve, poor fit]",–
O=[S+]1([O-])NCC2(CCN(Cc3ccccc3)CC2)Oc2ncccc21,"inconclusive: 79.4 µM [inhibitor, partial curve]",–
COc1ccc(OC(=O)c2nc(SCc3ccc(C)cc3)ncc2Cl)cc1,"inconclusive: 17.8 µM [inhibitor, partial curve, poor fit]",–
COC[C@H]1NC(=O)CC[C@H]1C(=O)NC1CCN(Cc2ccccc2)CC1,"inconclusive: 11.2 µM [inhibitor, partial curve, poor fit]",–
CNCCN1C(=O)CC[C@H]2CN(C(=O)c3ccc(Cl)cn3)CC[C@H]21,inactive,–
O=C(NCCN1CCOCC1)c1cc2nc(-c3cccs3)cc(C(F)(F)F)n2n1,"inconclusive: 2.24 µM [inhibitor, full curve, poor fit]",–
CCc1nn2c(=O)cc(COC(=O)c3ccccc3NC(=O)COc3ccccc3C)nc2s1,"inconclusive: 31.6 µM [inhibitor, single point]",–

SMILES,Potency,"activity change, negative = inhibition"
Cc1ccc(-n2nc(-c3noc(C(=O)N4CCC(c5ccccc5)C4)n3)c(=O)n(C)c2=O)cc1 (stereo unspecified),"inconclusive: 39.8 µM [inhibitor, single point]",–
Cc1ccc2c(c1)cc(C(=O)Nc1ccccc1C)n2C,"inconclusive: 28.2 µM [inhibitor, partial curve, poor fit]",–
Cc1ccc(NS(=O)(=O)c2cccc(C(=O)Nc3ccc4oc(C)nc4c3)c2)cc1,inactive,–
O=C(CN1CCC2(CC1)OCCO2)Nc1ccc(F)cc1,inactive,–
Cc1ccc(-c2nc3ccccc3c(C(=O)O)c2C)s1,"inconclusive: 22.4 µM [inhibitor, partial curve, poor fit]",–
CCc1ccc(C(=O)/C=C/c2ccc(O)cc2)cc1,inactive,–
COc1cc(C2CC(=O)Nc3c2c(=O)[nH]c2nc4ccccc4n32)ccc1O (stereo unspecified),–,inconclusive: -31.6% [inhibitor]
Cc1cc(C)[nH]n1,inactive,–
Cc1ccc(-c2cn3c(n2)CO[C@@H](CNC(=O)C2CCCC2)C3)cc1,"inconclusive: 28.2 µM [inhibitor, partial curve, poor fit]",–
CC1(COc2cccnc2)COc2ccc(C(=O)N3CCN(c4ccccn4)CC3)cc2N1 (stereo unspecified),"inconclusive: 39.8 µM [inhibitor, partial curve, poor fit]",–
COc1cccc(OC)c1C(=O)OCc1ccccc1C#N,"inconclusive: 15.8 µM [inhibitor, partial curve, poor fit]",–
Cc1ccc(CN2CCN(c3cc(NCCO)ncn3)CC2CCO)cc1 (stereo unspecified),inactive,–
CCCOc1ccc(C(=O)/C(=C/c2ccncc2)c2nc3ccccc3o2)cc1,"inconclusive: 12.6 µM [inhibitor, partial curve, poor fit]",–
CC(=O)Nc1cccc(-c2cc(-c3c(C)noc3C)cc3c2C(=O)N(C)C3)c1,inactive,–
Cc1nn(-c2ccc(F)cc2)c(Oc2ccc(F)cc2F)c1CCC(=O)NCC1CCCO1 (stereo unspecified),inactive,–
COc1cccc(CN2CC3(CCN(C)C3)c3cc(C(=O)NC4CCCCC4)ccc32)c1 (stereo unspecified),active: 35.5 µM,–
Cc1ccccc1-c1nc(C#N)c(NCc2ccco2)o1,"inconclusive: 20 µM [inhibitor, partial curve, poor fit]",–
Cc1ccc(-n2c(CCC(=O)O)ccc2-c2cccs2)cc1C,"inconclusive: 15.8 µM [inhibitor, partial curve, poor fit]",–
CCN(CC)c1nc2ccccc2nc1C(=O)Nc1ccccc1F,inactive,–
COc1ccccc1-c1cc(N2CCOCC2=O)c2cncn2c1,"inconclusive: 28.2 µM [inhibitor, partial curve, poor fit]",–
CCOC(=O)C1CCN(C(c2ccccc2)c2c(O)cc(C)n(Cc3ccco3)c2=O)CC1 (stereo unspecified),"inconclusive: 28.2 µM [inhibitor, single point]",–
CN(C)Cc1nnc(C2CC(NC(=O)C3(C#N)CCOCC3)C2)n1C (stereo unspecified),"inconclusive: 7.94 µM [inhibitor, partial curve]",–

SMILES,Potency,"activity change, negative = inhibition"
COc1cc2cc(C(=O)NCC(=O)Nc3ccc4c(c3)OCO4)[nH]c2c(OC)c1OC,"inconclusive: 20 µM [inhibitor, partial curve, poor fit]",–
O=C(Nc1ccc(C(F)(F)F)cc1)C1CCC(CNS(=O)(=O)c2cccc3nsnc23)CC1 (stereo unspecified),"inconclusive: 35.5 µM [inhibitor, partial curve, poor fit]",–
CCc1c(C)c2ccc3c(c2oc1=O)CN(Cc1ccccc1)CO3,"inconclusive: 5.01 µM [inhibitor, full curve, poor fit]",–
COc1ccc(OCC(=O)Nc2nnc(S(=O)(=O)N3CCCCCC3)s2)cc1,inactive,–
CCNC(=O)NC(=O)CN1CCCCCCC1,inactive,–
CCc1ccc(S(=O)(=O)c2cn(C)c3cc(N4CCCCC4C)c(F)cc3c2=O)cc1 (stereo unspecified),"inconclusive: 17.8 µM [inhibitor, partial curve, poor fit]",–
O=C(O)CCCC(=O)N1Cc2ccccc2CC2(CCCN(Cc3ccccn3)C2)C1 (stereo unspecified),"inconclusive: 31.6 µM [inhibitor, partial curve]",–
Cc1cc(C)cc(NC(=O)C2CCCN(c3nnc(C)c4c(C)n(-c5ccccc5)nc34)C2)c1 (stereo unspecified),"inconclusive: 15.8 µM [inhibitor, partial curve, poor fit]",–
O=C(NCCc1cccnc1)C12CC3CC(CC(C3)C1)C2,inactive,–
COc1ccc(NC(=O)c2ccccc2NC(=O)c2ccco2)cc1,"inconclusive: 39.8 µM [inhibitor, single point]",–
CCN(CC)S(=O)(=O)c1ccc(NC(=O)[C@H](CSCc2ccccc2)N2Cc3ccccc3C2=O)cc1,"inconclusive: 31.6 µM [inhibitor, partial curve, poor fit]",–
COc1ccc(-c2nc(C)nc3c2CN(C(=O)c2ccc(Cl)nc2)CC3)cc1,"inconclusive: 17.8 µM [inhibitor, partial curve]",–
CC1CCC(C)[S+]1c1cc(O)ccc1O (stereo unspecified),"inconclusive: 15.8 µM [inhibitor, partial curve, poor fit]",–
COc1ccc2nc3sc(C(=O)Nc4ccccc4F)cc3cc2c1,"inconclusive: 3.16 µM [inhibitor, partial curve, poor fit]",–
CCOCCCNc1ncnc2c1CN(C1CCNC1)C(=O)CN2C (stereo unspecified),"inconclusive: 35.5 µM [inhibitor, partial curve, poor fit]",–
COc1cc(OC)c(C(=O)Nc2nnc(C)s2)cc1OC,"inconclusive: 15.8 µM [inhibitor, partial curve, poor fit]",–
O=C(COc1ccc(F)cc1)N1CCC2(CC1)CN(C1CCC1)CC2CO (stereo unspecified),"inconclusive: 20 µM [inhibitor, partial curve]",–
O=C(c1ccoc1)N1CCC(Nc2cccnc2)C1 (stereo unspecified),active: 12.6 µM,–
O=C1C2C3CC(C(Br)C3Br)C2C(=O)N1c1nccs1 (stereo unspecified),"inconclusive: 8.91 µM [inhibitor, partial curve, poor fit]",–
COc1cccc(-c2nc3cnccn3c2NCCC(=O)N2CCCC(C)C2)c1 (stereo unspecified),active: 28.2 µM,–
O=c1[nH]c(=S)c2ncn(-c3ccccc3)c2[nH]1,"inconclusive: 11.2 µM [inhibitor, partial curve, poor fit]",–
Cc1ccccc1C(=O)NC1CCN(c2nc3ncccc3o2)CC1,active: 31.6 µM,–
